# Whole data set: some 16,000 sequences, median “Z-score” near -0.37, cut for the highest 2% near 3.1. Some of the results follow.
# Tested on: RBM10 RRM1-ZnF-RRM2 (GST-tagged construct)
# Assay: RNAcompete 7-mer binding Z-score; higher = stronger binding preference
# Procedure: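 RNAcompete: 20 pmol GST-tagged RBM10 RNA-binding constructs were incubated with a designed RNA pool of about 241,000 sequences up to 41 nt (1.5 nmol) on glutathione beads for 30 min at 4 °C and washed. Bound RNAs were identified by microarray hybridisation. Each RNA 7-mer is scored by a one-sided Z-score of its enrichment, computed over probes that contain the 7-mer within longer pool sequences.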
row,Sequence,RNAcompete 7-mer binding Z-score
1,GGGUCCC,0.625
2,UUAUCUC,-0.741
3,GCGUUGU,-0.162
4,UUAAAAA,-0.402
5,CACGGAG,0.712
6,UUACCGC,-0.701
7,UCCCAGU,-0.566
8,GCCUGUA,-0.763
9,GCCGGAG,0.476
10,CAUUGCU,-0.683
11,UGGAACA,1.38
12,CAUAAAC,-0.511
13,UUGGCCG,-0.129
14,GACGCAG,0.137
15,GCUCUAA,-0.577
16,CAGACGG,0.935
17,AGUCAAU,-0.136
18,AUGCCGG,-0.136
19,CAUCUAU,-0.825
20,AGGGCGG,2.23
21,ACGGAUC,0.213
22,GUCCUAU,-0.599
23,GAUAAAG,1.26
24,UGCCCGC,-0.449

row,Sequence,RNAcompete 7-mer binding Z-score
1,GUGGUAU,1.08
2,CCGAGAU,-0.347
3,UUCUUUA,-0.803
4,CUUUGUC,-0.821
5,UCCACAC,-0.621
6,GGUCUUG,-0.3
7,CAAUUUG,-0.795
8,AUACUCU,-0.817
9,CACCACG,-0.154
10,AGGCCCU,-0.919
11,CGUUAUG,-0.347
12,UAAACGA,-0.231
13,UCUUGUA,-0.697
14,UCCGUAU,-0.704
15,CCUCAAU,-0.912
16,UGCAAUU,-0.355
17,UGGAGGC,2.16
18,ACAUUCC,-0.763
19,CUCCUCC,-0.606
20,AUUUCGA,-0.624
21,GUCGCCU,-0.562
22,AUUAUCG,-0.402
23,CCACGGG,1.23
24,GUCGUCU,-0.417

row,Sequence,RNAcompete 7-mer binding Z-score
1,CGGCAGG,1.39
2,UCCACGU,-0.49
3,AGCAUGC,-0.286
4,GCUAUCU,-0.785
5,GAGCGUA,0.399
6,AAUGCCC,-0.744
7,GAAUGUA,0.811
8,UAAUAAA,-0.679
9,ACUGGGC,0.927
10,CUUGGUU,-0.533
11,CUGACGA,-0.439
12,GAUAAUU,-0.278
13,AACCUAC,-0.777
14,CUCGUAC,-0.628
15,GCCAGGU,0.253
16,CAUUGUU,-0.592
17,CAAGUUA,-0.216
18,GGAAACC,0.8
19,AAGAAAA,0.104
20,ACCCUCU,-0.967
21,GCGUUAU,-0.125
22,GUGCCGU,-0.158
23,GACGACC,-0.453
24,ACCAGUG,0.213

row,Sequence,RNAcompete 7-mer binding Z-score
1,AUAGCCG,-0.351
2,AAAAGUA,0.304
3,CCGGACU,-0.428
4,AUUGACA,-0.0707
5,UUUUGCU,-0.836
6,GAAUGAA,0.425
7,CGGAACU,0.075
8,UGGACGC,0.548
9,GGUCUUA,-0.475
10,UGUGAGA,0.734
11,AGUCAGC,-0.238
12,UACUAUA,-0.42
13,ACUUCUG,-0.901
14,UCGAAAC,-0.533
15,ACAGGCG,1.43
16,UAUUCGU,-0.704
17,UCUAUCG,-0.744
18,CCCGUGC,-0.544
19,AUGGCAG,1.49
20,CCGAAUC,-0.963
21,GCGAGCA,1.09
22,GACCACG,-0.446
23,UGCUAAU,-0.635
24,GGAAAGC,2.01

row,Sequence,RNAcompete 7-mer binding Z-score
1,GGCUUAG,0.414
2,GUGGGCC,1.58
3,AAGACCC,-0.803
4,AGCAACC,-0.653
5,AUUCGAA,-0.475
6,CGGACAG,0.701
7,AUUGGUC,-0.0124
8,AGUAGCA,0.301
9,UCACCAG,-0.344
10,AUCUACG,-0.53
11,UGUGUGA,0.396
12,GACCGUG,-0.282
13,GCAAACU,-0.34
14,GUGAUAG,1.19
15,CUAGCUU,-0.865
16,GGAGACG,1.91
17,UAUUUUA,-0.846
18,UAUUUUC,-0.974
19,CCCCCCA,-0.38
20,CCCGCAC,-0.894
21,GGGUCUU,0.377

# Source: the supplement of paper PMC5499739
